# About 5,800 (2.1%) of roughly 270,000 compounds were called active. The shares of active, inactive and inconclusive entries below differ from those in the screen. The call rests on the fitted dose curve; in most records, active means well fitted inhibition curve with a large enough effect; inconclusive means small, poorly fitted or top-dose-only effect; inactive means flat fitted curve, though single readings scatter. A potency beside an inconclusive call is a rough fit, not a confirmed value.
# Biological target: Microtubule-associated protein tau (Homo sapiens) (UniProt P10636)
# Chain of UniProt P10636 (P10636 whole entry, looked up): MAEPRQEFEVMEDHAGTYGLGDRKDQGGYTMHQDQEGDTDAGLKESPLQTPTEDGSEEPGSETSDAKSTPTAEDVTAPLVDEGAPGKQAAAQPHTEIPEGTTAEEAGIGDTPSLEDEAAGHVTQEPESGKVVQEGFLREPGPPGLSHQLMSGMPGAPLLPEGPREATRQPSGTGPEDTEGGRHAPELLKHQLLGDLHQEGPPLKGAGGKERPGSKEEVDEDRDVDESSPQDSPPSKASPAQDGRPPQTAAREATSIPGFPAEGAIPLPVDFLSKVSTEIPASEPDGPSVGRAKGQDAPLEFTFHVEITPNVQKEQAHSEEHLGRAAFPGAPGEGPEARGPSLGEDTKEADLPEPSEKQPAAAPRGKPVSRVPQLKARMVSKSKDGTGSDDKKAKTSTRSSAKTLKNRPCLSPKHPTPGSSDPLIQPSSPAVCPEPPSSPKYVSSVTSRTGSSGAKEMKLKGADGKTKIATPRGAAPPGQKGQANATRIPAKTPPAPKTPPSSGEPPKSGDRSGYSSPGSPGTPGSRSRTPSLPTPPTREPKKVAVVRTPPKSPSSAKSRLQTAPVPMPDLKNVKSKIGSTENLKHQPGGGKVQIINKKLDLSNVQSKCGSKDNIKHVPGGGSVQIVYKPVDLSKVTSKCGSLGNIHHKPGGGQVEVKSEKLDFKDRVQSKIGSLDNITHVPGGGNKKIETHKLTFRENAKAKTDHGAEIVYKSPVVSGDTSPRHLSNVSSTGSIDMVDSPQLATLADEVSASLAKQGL
# Assay: qHTS for Inhibitors of Tau Fibril Formation, Thioflavin T Binding; further: nearly all actives have a fitted effect of over 55% in size
# Details: recombinant tau K18 P301L, heparin-induced fibrillization, ThT fluorescence; series mostly up to 57.4 µM
# Method in brief: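 Fibril formation assay: tau K18 P301L at 15 uM with trace Alexa 594 label, heparin inducer 20 uM, pH 7 sodium acetate buffer, 37 C for 6 hr; endpoint ThT signal.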
# Potency means the concentration at half of the fitted maximal effect; tags describe the fitted curve by direction and shape.
row,Compound,Potency
1,CCS(=O)(=O)c1ncc(Cl)c(C(=O)N2CCN(c3cccc(Cl)c3)CC2)n1,"inconclusive: 3.16 µM [inhibitor, full curve]"
2,COn1c(SCc2ccc(Cl)cc2)nc2ccccc2c1=O,"inconclusive: 28.2 µM [inhibitor, partial curve]"
3,COc1cc(C(=O)OCCc2c(C)nc3nc[nH]n3c2=O)cc(OC)c1OC,inactive
4,N#Cc1ccccc1CN1C(=O)S/C(=C/c2cccn2-c2cccc(C(=O)O)c2)C1=O,"inconclusive: 35.5 µM [inhibitor, single point]"
5,COc1ccc(C(=O)c2sc(Nc3cccc(OC)c3)c(C(=O)Nc3cccc(C)c3C)c2N)cc1,active: 17.8 µM
6,COc1ccc(C(=O)/C=C/c2ccc(OC)c(COc3ccccc3F)c2)cc1,"inconclusive: 11.2 µM [inhibitor, partial curve]"
7,CC(=O)Nc1ccc(Nc2ncnc(N)c2[N+](=O)[O-])cc1,inactive
8,CC(C)(C)C(=O)NCCCNc1ccc([N+](=O)[O-])cc1,"inconclusive: 12.6 µM [inhibitor, partial curve]"
9,Cc1ccc(S(=O)(=O)N2CCOCC2)cc1NC(=O)CN1CCN(c2ccc(O)cc2)CC1,"inconclusive: 44.7 µM [inhibitor, single point]"
10,COc1cc(/C=C2\S/C(=N/S(=O)(=O)c3ccccc3)NC2=O)c([N+](=O)[O-])cc1OC,active: 14.1 µM
11,CCOC(=O)C(Sc1nnc2c3ccccc3n(CC)c2n1)C(=O)OCC,"inconclusive: 17.8 µM [inhibitor, partial curve]"
12,COc1ccccc1NS(=O)(=O)c1cc(NC(=O)c2cccs2)ccc1N1CCCCC1,"inconclusive: 35.5 µM [activator, single point]"
13,Cc1ccc2c(c1)c1c(c(=O)n(-c3ccccc3C)c(=O)n1CC(=O)NCc1ccccc1)n2C,inactive
14,CCCC(=O)N1CCc2cc(-c3nc(N)sc3C)ccc21,"inconclusive: 50.1 µM [inhibitor, partial curve, poor fit]"
15,Cn1cc(SCC(=O)N2CCN(c3ccccc3)CC2)c2ccccc21,"inconclusive: 39.8 µM [inhibitor, partial curve, poor fit]"
16,COc1ccc(-c2cn3nc(N4CCCC(C(=O)NCc5ccccc5C)C4)sc3n2)cc1 (stereo not drawn),"inconclusive: 3.55 µM [inhibitor, full curve]"
17,COc1ccc(Cn2ccnc2SCC(=O)Nc2cc(C(F)(F)F)ccc2Cl)cc1,"inconclusive: 20 µM [inhibitor, single point]"
18,COc1cccc(Nc2sc(C(=O)c3ccc(F)cc3)c(N)c2C(=O)NCc2ccc(C)cc2)c1,"inconclusive: 2.51 µM [inhibitor, single point]"
19,COc1ccc(CN=C2NN=C(c3cccc(OC)c3)CS2)cc1,"inconclusive: 17.8 µM [inhibitor, partial curve]"
20,COc1ccc2c(c1OC)C(=O)N1c3ccccc3N=C(c3ccc([N+](=O)[O-])cc3)CC21 (stereo not drawn),active: 20 µM
21,CCOC(=O)c1c(-c2ccc(C)o2)csc1NC(=O)COC(=O)c1ccc(NC(N)=O)cc1,inactive
22,Cc1ccc(N(CC(=O)NCC2CCCO2)C(=O)Cn2nnc(-c3cccs3)n2)cc1 (stereo not drawn),"inconclusive: 10 µM [inhibitor, partial curve]"
23,NC1=NC(=O)C2(COC(c3cccnc3)OC2)S1 (stereo not drawn),inactive

row,Compound,Potency
1,C=CCSc1nnc(-c2sc(-c3ccccc3)nc2C)n1C,"inconclusive: 22.4 µM [inhibitor, partial curve, poor fit]"
2,COc1ccc(NS(=O)(=O)c2ccc3c(c2)n(C)c(=O)n3C)cc1,inactive
3,O=C(/C=C/Nc1nccs1)C(F)(F)Cl,"inconclusive: 44.7 µM [inhibitor, single point]"
4,COc1ccc(C(=O)c2oc3ccccc3c2NC(C)=O)cc1,inactive
5,CN(C)c1ccc(CC(=O)c2nc3ccccc3s2)cc1,"inconclusive: 15.8 µM [inhibitor, partial curve]"
6,O=S(=O)(Nc1cccc(-c2ccc(N3CCCC3)nn2)c1)c1ccc(F)cc1F,"inconclusive: 20 µM [inhibitor, single point]"
7,Cc1nc(-c2cccc(S(=O)(=O)N3CCC(C)CC3)c2)cs1,"inconclusive: 20 µM [inhibitor, partial curve]"
8,Cc1ccc(OCCn2c(NC(=O)c3ccco3)nc3ccccc32)cc1,inactive
9,COc1ccccc1N1CCN(Cc2ccc(Br)o2)CC1,inactive
10,O=S(=O)(c1ccc(F)cc1)N1CCC(n2c(C(F)(F)F)nc3cccnc32)CC1,inactive
11,COc1ccc(CNC(=O)C2CCN(c3nnc(-n4cccc4CNc4ccc(C)cc4)s3)CC2)c(OC)c1,"inconclusive: 17.8 µM [inhibitor, single point]"
12,Cc1ccccc1-n1c(=O)c2c3c(sc2n2cnnc12)CCCC3,inactive
13,Cc1no[n+]([O-])c1COc1ccc(/C=C2\NC(=S)NC2=O)cc1,"inconclusive: 11.2 µM [inhibitor, partial curve]"
14,CCOC(=O)CSc1nc2c(c(=O)[nH]c(=O)n2C)n1CCCc1ccccc1,inactive
15,CC1=C(C(=O)OC(C)C)C(c2ccc(C)o2)C(C(=O)OC(C)C)=C(C)N1,inactive
16,Cc1nc(N2CCCCC2)sc1C(=O)c1ccc(Cl)c([N+](=O)[O-])c1,"inconclusive: 22.4 µM [inhibitor, single point]"
17,CCCNC(=S)Nc1ccc(Nc2ccccc2)cc1,"inconclusive: 17.8 µM [inhibitor, partial curve]"
18,CC1=CSC2=NC(=O)/C(=C\c3cccn3-c3ccc([N+](=O)[O-])cc3)C(=N)N12,"inconclusive: 8.91 µM [inhibitor, single point]"
19,CN(NC1OC(=O)c2ccccc21)c1ccc(Cl)cc1[N+](=O)[O-] (stereo not drawn),"inconclusive: 11.2 µM [inhibitor, partial curve]"
20,O=c1cc(-c2ccc(O)c(O)c2)oc2cc(O)c(C3OC(CO)C(O)C(O)C3O)c(O)c12 (stereo not drawn),"inconclusive: 1.12 µM [inhibitor, single point]"
21,Cn1c(-c2ccc(C=O)s2)nc2ccccc21,"inconclusive: 17.8 µM [inhibitor, partial curve, poor fit]"
22,O=C(CSc1nc2c([nH]c3ccccc32)c(=O)n1-c1ccccc1F)Nc1ccccc1C(F)(F)F,inactive
23,COc1ccc(C(=O)n2nc(C)cc2Nc2ccccc2)cc1,"inconclusive: 28.2 µM [inhibitor, partial curve]"

row,Compound,Potency
1,COC(=O)c1ccc2c(c1)N(CC(=O)Nc1cccc(C(F)(F)F)c1)C(=O)c1ccccc1S2,inactive
2,O=Nc1c(O)n(Cc2cccc(C(F)(F)F)c2)c2ccccc12,"inconclusive: 39.8 µM [inhibitor, single point]"
3,CCOC(=O)CC(C#N)c1cn(C)c2ccccc12 (stereo not drawn),inactive
4,O=C(Nc1ccccc1Cl)C1CCN(c2nc3ccccc3[nH]2)CC1,inactive
5,Fc1ccccc1OCc1nc(-c2ccc(-n3cccc3)cc2)no1,"inconclusive: 0.141 µM [inhibitor, full curve, poor fit]"
6,COC(=O)[C@@H]1C[C@]2(OC(=O)c3ccccc3)C=CC(=O)C[C@@H]2N1C(=O)OCc1ccccc1,"inconclusive: 15.8 µM [inhibitor, partial curve]"
7,CCCc1ccc(-c2cc(NC(=O)CSc3n[nH]c(N)n3)n(-c3ccccc3)n2)cc1,"inconclusive: 7.08 µM [inhibitor, partial curve, poor fit]"
8,CCNC(=S)N1CCc2ccccc2C1,inactive
9,Cc1ccc(Cl)cc1N1CCN(C(=O)c2cc(S(=O)(=O)N3CCCCCC3)cn2C)CC1,"inconclusive: 22.4 µM [inhibitor, single point]"
10,CCOc1ccc(/C=C/C(=O)c2ccccc2)cc1,"inconclusive: 14.1 µM [inhibitor, partial curve, poor fit]"
11,COc1cc(CNc2ccc3c(c2)ncn3C(C)C)cc(OC)c1OC,"inconclusive: 20 µM [inhibitor, single point]"
12,CC1CCCCC12NC(=O)N(CC(=O)Nc1sc3c(c1C(N)=O)CCC3)C2=O (stereo not drawn),"inconclusive: 20 µM [inhibitor, partial curve, poor fit]"
13,COc1ccccc1C(=O)COC(=O)c1ccc(N(C)C)cc1,"inconclusive: 12.6 µM [inhibitor, partial curve]"
14,CC1CCCCN1c1nc(-c2ccncc2)nc2ccccc12 (stereo not drawn),"inconclusive: 35.5 µM [inhibitor, partial curve]"
15,N#Cc1nc(-c2cccc3ccccc23)oc1NCC1CCCO1 (stereo not drawn),"inconclusive: 35.5 µM [inhibitor, single point]"
16,COc1ccc(NC(=O)C2CCCCN2N)cc1OC (stereo not drawn),"inconclusive: 31.6 µM [inhibitor, partial curve]"
17,CCCC(=O)Nc1ccc(C(=O)NNC(=S)NC(=O)c2cccs2)cc1,"inconclusive: 11.2 µM [inhibitor, partial curve, poor fit]"
18,Cc1ccc2c(c1)C(=O)C(=O)N2Cc1ccc(OC(C)C)cc1,"inconclusive: 15.8 µM [inhibitor, partial curve]"
19,COc1ccc(S(=O)NC2CCCCC2)c(OC)c1C (stereo not drawn),"inconclusive: 2.82 µM [inhibitor, single point]"
20,CCCCN1C(=O)C(O)(CC(=O)c2c(C)coc2C)c2ccccc21 (stereo not drawn),inactive
21,CCCC(=NCCc1c(C)[nH]c2ccccc12)C1=C(O)CC(c2ccccc2)CC1=O (stereo not drawn),"inconclusive: 20 µM [inhibitor, partial curve]"
22,O=C(NCCCN1CCN(c2ccc(F)cc2)CC1)c1sc2ncccc2c1-n1cccc1,inactive
